SMILES strings stand for the structures. Like-named read-outs stand apart in the source and are kept apart here. Some values that stand alone complete this part of the results.

In the case of `CCOc1ccc(-c2csc(-c3cccc(C(=O)O)c3)n2)cc1` [Example 96, 3-[4-(4-ethoxyphenyl)-2-thiazolyl]benzoic acid], the melting point by setting is: (recrystallized from acetone-hexane) 231 to 232 °C; (recrystallized from tetrahydrofuran-hexane) 280 to 281 °C.

For the origin of these results see patent publication US6545009B1, “Retinoid-related receptor function regulating agent” (Takeda Chemical Industries, Ltd., priority 1998, dated 2003).
